Sequences with one replicate were seen in a single cluster, so their values are uncertain.
Test system: ATP
Assay: switch fluorescence ratio, 500 uM ATP over buffer (Cy3 cluster intensity, sum of 5 cycles each) (fold (ratio)); higher = stronger signal-on switching upon ATP binding; sequences stand for … in TCGTCGGCAGCGTCAGATGTGTATAAGAGACAGTTTTTTTTTTTTTTTTTTTTTTTTT…TC
Conditions: aptamer strand: ATP DNA aptamer (quencher-CACCTGGGGGAGTATTGCGGAGGAAGG + anchor), 100 nM annealed; ATP concentration: 500 uM; one replicate
Outline: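 Values give the fluorescence ratio for each switch-domain sequence, averaged from per-cluster ratios of summed target-cycle to summed buffer-cycle Cy3 intensity. The Cy3-labelled switching-strand clusters sat on a modified Illumina MiSeq flow-cell, were annealed to 100 nM quencher-labelled ATP aptamer, and were imaged in selection buffer, then after 15 min with 500 uM ATP at 22 °C. Five cycles ran with NaOH stripping and re-annealing between them, and clusters outside 100-1000 RFU were excluded.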
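Also: ATP exposure 15 min at 22 °C before imaging.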

Q: CTCGGTGCGT was tested. Which switch fluorescence ratio did it give?
A: 0.977

Q: How did the switch fluorescence ratio turn out when CTCGGTGTTC was run?
A: 0.942

Q: Which switch fluorescence ratio does the source give for CTCGTCACCC here?
A: 1.05

Q: Which switch fluorescence ratio does the source give for CTCGTCTATC here?
A: 1.17

Q: CTCTAAATCT was tested. Which switch fluorescence ratio did it give?
A: 1.27

Q: CTCTAGACCC was tested. Which switch fluorescence ratio did it give?
A: 1.14

Q: Which switch fluorescence ratio does the source give for CTCTAGACCT here?
A: 1.37

Q: How did the switch fluorescence ratio turn out when CTCTCGTGTT was run?
A: 0.964

Q: Which switch fluorescence ratio does the source give for CTCTCTGGAG here?
A: 1.02

Q: Which switch fluorescence ratio does the source give for CTCTCTGGTA here?
A: 1.05

Q: How did the switch fluorescence ratio turn out when CTCTGAGGAA was run?
A: 1.09

Q: How did the switch fluorescence ratio turn out when CTCTGATAGT was run?
A: 0.993

Q: With CTCTGCTGG as the sequence, how does the switch fluorescence ratio read?
A: 1.29

Q: Which switch fluorescence ratio does the source give for CTCTTAATAG here?
A: 1.26

Q: CTCTTACTTC was tested. Which switch fluorescence ratio did it give?
A: 1.04

Q: With CTCTTAGAGT as the sequence, how does the switch fluorescence ratio read?
A: 0.937

Q: With CTCTTCAAAA as the sequence, how does the switch fluorescence ratio read?
A: 2.4

Q: Which switch fluorescence ratio does the source give for CTCTTCAATC here?
A: 3.44

Q: CTCTTCTTTG was tested. Which switch fluorescence ratio did it give?
A: 0.976

Q: How did the switch fluorescence ratio turn out when CTCTTGACAG was run?
A: 0.97

Q: With CTCTTGGAGT as the sequence, how does the switch fluorescence ratio read?
A: 0.985

Q: For CTCTTGGCCG, which switch fluorescence ratio is on record?
A: 0.936

Q: Which switch fluorescence ratio does the source give for CTCTTGGTCT here?
A: 1.03

Q: How did the switch fluorescence ratio turn out when CTCTTGTCGT was run?
A: 1.01

Q: With CTCTTGTGAT as the sequence, how does the switch fluorescence ratio read?
A: 1.02

Q: CTCTTTCCCT was tested. Which switch fluorescence ratio did it give?
A: 1.01

Q: With CTGAAAACAA as the sequence, how does the switch fluorescence ratio read?
A: 0.997

Q: How did the switch fluorescence ratio turn out when CTGAAACTCT was run?
A: 1.05

Q: CTGAACACA was tested. Which switch fluorescence ratio did it give?
A: 0.99

Q: Which switch fluorescence ratio does the source give for CTGAAGCGTA here?
A: 1.12

Q: Which switch fluorescence ratio does the source give for CTGAAGGCTA here?
A: 1.27

Q: How did the switch fluorescence ratio turn out when CTGAATTAA was run?
A: 0.958

Q: How did the switch fluorescence ratio turn out when CTGACACATG was run?
A: 1.01

Q: Which switch fluorescence ratio does the source give for CTGACAGCCG here?
A: 1

Q: How did the switch fluorescence ratio turn out when CTGACATT was run?
A: 1.03

Q: How did the switch fluorescence ratio turn out when CTGACCGTAA was run?
A: 4.21

Q: Which switch fluorescence ratio does the source give for CTGACCTGCC here?
A: 2.56

Q: With CTGACTATTG as the sequence, how does the switch fluorescence ratio read?
A: 0.996

Q: For CTGACTGATT, which switch fluorescence ratio is on record?
A: 1.02

Q: CTGAGACGTT was tested. Which switch fluorescence ratio did it give?
A: 1

Q: With CTGAGACTAG as the sequence, how does the switch fluorescence ratio read?
A: 1

Q: For CTGAGCCTGG, which switch fluorescence ratio is on record?
A: 1.02

Q: With CTGAGGTTG as the sequence, how does the switch fluorescence ratio read?
A: 1

Q: For CTGAGGTTTG, which switch fluorescence ratio is on record?
A: 0.954

Q: CTGAGTGC was tested. Which switch fluorescence ratio did it give?
A: 1.05

Q: How did the switch fluorescence ratio turn out when CTGAGTGTAA was run?
A: 0.998

Q: With CTGATAATGG as the sequence, how does the switch fluorescence ratio read?
A: 1.02

Q: How did the switch fluorescence ratio turn out when CTGATCCAGG was run?
A: 1.4

Q: Which switch fluorescence ratio does the source give for CTGATGGTCT here?
A: 1.03

Q: For CTGATTAAAA, which switch fluorescence ratio is on record?
A: 0.958

Q: How did the switch fluorescence ratio turn out when CTGATTTGTG was run?
A: 0.992

Q: With CTGCAAAGAA as the sequence, how does the switch fluorescence ratio read?
A: 1.02

Q: For CTGCAACTGG, which switch fluorescence ratio is on record?
A: 2.41

Q: For CTGCAATGTA, which switch fluorescence ratio is on record?
A: 2.36

Q: For CTGCATCGTC, which switch fluorescence ratio is on record?
A: 1.08

Q: Which switch fluorescence ratio does the source give for CTGCATGGG here?
A: 1.12

Q: For CTGCATTTT, which switch fluorescence ratio is on record?
A: 1.18

Q: For CTGCCAGAGG, which switch fluorescence ratio is on record?
A: 0.986

Q: For CTGCCTATTC, which switch fluorescence ratio is on record?
A: 1.01

Q: How did the switch fluorescence ratio turn out when CTGCGACGGA was run?
A: 0.995

Q: CTGCGATGAA was tested. Which switch fluorescence ratio did it give?
A: 1.02

Q: With CTGCGCATCA as the sequence, how does the switch fluorescence ratio read?
A: 1.57

Q: How did the switch fluorescence ratio turn out when CTGCGGATTT was run?
A: 1

Q: Which switch fluorescence ratio does the source give for CTGCGGCTAA here?
A: 1.08

Q: Which switch fluorescence ratio does the source give for CTGCGGTATC here?
A: 1.82

Q: For CTGCGGTTCG, which switch fluorescence ratio is on record?
A: 1.05

Q: Which switch fluorescence ratio does the source give for CTGCGTACGA here?
A: 1.22

Q: CTGCGTCCGG was tested. Which switch fluorescence ratio did it give?
A: 1.06

Q: Which switch fluorescence ratio does the source give for CTGCGTTGCG here?
A: 0.989

Q: With CTGCTAGGTT as the sequence, how does the switch fluorescence ratio read?
A: 1

Q: Which switch fluorescence ratio does the source give for CTGCTCGAAC here?
A: 1.05

Q: CTGCTGACGA was tested. Which switch fluorescence ratio did it give?
A: 1.12

Q: How did the switch fluorescence ratio turn out when CTGCTGATTG was run?
A: 1.04

Q: CTGCTGTCGG was tested. Which switch fluorescence ratio did it give?
A: 0.955

Q: CTGGAAGCAC was tested. Which switch fluorescence ratio did it give?
A: 3.01

Q: Which switch fluorescence ratio does the source give for CTGGAGGTAT here?
A: 1.09
